According to ChEMBL document CHEMBL4689842, “EUbOPEN Chemogenomics Library wave 1” (2021):
For part of its entries the source gives two or more results. This is not the full list of results. An entry can have further records. The values listed for one entry repeat one measurement (runs, samples, wells, individuals or studies).

What was measured:
Assay type in all cases: toxicity, cell-based
HEK-293T = assay: Multiplex assay against HEK293T; details: human, 1 µM, compound concentration 1 uM;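 as to Population Tubulin-Different-Phenotype (%): share of the cells with healthy nuclei that show this phenotype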
In short: (§1)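 Compound was added to live cells that had been stained at seeding with Hoechst33342, BioTracker Green Microtubule Cytoskeleton Dye, MitoTracker Red and Annexin V Alexa Fluor 680, and imaging followed on a CQ1 microscope at 37°C and 5% CO2. CellPathfinder machine-learning gating divided cells into Hoechst high-intensity objects or normal cells, normal cells into healthy, pyknosed or fragmented nuclei, and pyknosed cells into mitotic or apoptotic. Tubulin, mitochondrial-mass and membrane-permeability phenotypes are per cents of healthy-nucleus cells.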

Fibroblast = assay: Multiplex assay against human fibroblast; details: 1 µM, compound concentration 1 uM; for Population Tubulin-Different-Phenotype (%): replicate 1; in short: as §1
U2OS = assay: Multiplex assay against U2OS; details: human, 1 µM, compound concentration 1 uM; in short: as §1

COc1cc(Nc2ccnc3ccc(Br)cc23)cc(OC)c1OC
Population Mitochondria Different-Phenotype (%) (HEK-293T; 12 h, replicate 1): 29% and 6%
Population Tubulin-Different-Phenotype (%) (HEK-293T; 12 h, replicate 1): 30% and 6%
Population Hoechst High Intensity Objects (%) (HEK-293T; 12 h, replicate 2): 7% and 2%
Population Mitochondria Different-Phenotype (%) (HEK-293T; 12 h, replicate 2): 52% and 14%
Population Tubulin-Different-Phenotype (%) (HEK-293T; 12 h, replicate 2): 46% and 4%
Population Mitochondria Different-Phenotype (%) (HEK-293T; 24 h, replicate 1): 44% and 8%
Population Pyknosed Nuclei (%) (HEK-293T; 24 h, replicate 2): 37% and 12%
Population Tubulin-Different-Phenotype (%) (HEK-293T; 24 h, replicate 2): 51% and 5%
Population Tubulin-Different-Phenotype (%) (Fibroblast; 12 h): 38% and 4%
Population Healthy Nuclei (%) (Fibroblast; 12 h, replicate 2): 27% and 8%
Population Mitochondria Different-Phenotype (%) (Fibroblast; 12 h, replicate 2): 0% and 33%
Population Tubulin-Different-Phenotype (%) (Fibroblast; 24 h): 1% and 26%
Population Apoptotic (%) (Fibroblast; 24 h, replicate 2): 0% and 75%
Population Mitotic Cells (%) (Fibroblast; 24 h, replicate 2): 100% and 25%
Population Pyknosed Nuclei (%) (Fibroblast; 24 h, replicate 2): 2% and 12%
Population Apoptotic (%) (U2OS; 12 h, replicate 2): 76% and 0%
Population Mitotic Cells (%) (U2OS; 12 h, replicate 2): 23% and 100%
Population Mitochondria Different-Phenotype (%) (U2OS; 24 h, replicate 1): 11% and 41%
Population Mitotic Cells (%) (U2OS; 24 h, replicate 1): 68% and 16%
Population Apoptotic (%) (U2OS; 24 h, replicate 2): 87% and 8%
Population Mitotic Cells (%) (U2OS; 24 h, replicate 2): 12% and 91%
